This is an account of results in PubChem BioAssay AID463173 (ICCB-Longwood Screening Facility, Harvard Medical School, 2010).

In all, about 52,000 compounds went through this assay and about 1,700 (3.3%) were called active. No stated cut-off is given here; in the data, active means survival mostly below about 52% (no sharp cut-off); inactive means mostly above about 56%. The list shows a part of the results.

This assay relates to Wild type. The assay can be described thus: growth inhibition of S. aureus wild type versus tarO mutant, primary screen, teichoic acid synthesis inhibitors, RN4220, OD600 (AID 463173). The settings on record: S. aureus RN4220 wild type/DeltatarO growth, OD600, 18 h, hits give low values, screened at 18.75 µg/mL (by protocol).
On to `CCc1ccc(NC(=O)c2cc(S(=O)(=O)N3CCCC3)ccc2F)cc1`, for which the survival is inactive: 69%.
The result for `CCCCc1nn2c(=O)cc(COC(=O)c3ccc(NC(=O)c4cccs4)cc3)nc2s1` reads inactive: 84%; that for `Fc1ccc(Nc2nc3nonc3nc2Nc2cccc(C(F)(F)F)c2)cc1`, active: -1%; that for `CCN1CCSc2ccc(C(=O)NCc3cccc(F)c3)cc21`, inactive: 87%.
The result for `O=C(Cn1c(=O)n(-c2ccc(Cl)cc2)c(=O)c2c3c(sc21)CCC3)c1ccc(F)cc1` reads inactive: 74%; that for `Cn1c(CNC(=O)CSc2n[nH]c(-c3ccccc3)n2)nc2ccccc21`, inactive: 67%; that for `CC(C)(C)C1CCc2c(sc(NC(=O)Cn3nnc(-c4cccc(C(F)(F)F)c4)n3)c2C#N)C1` (stereo unspecified), inactive: 96%.
The result for `CCCCCOC(=O)CSc1nc2sc3c(c2c(=O)n1Cc1ccccc1)CC(C)(C)OC3` reads inactive: 62%; that for `CC1(C)OC2C(CS(C)(=O)=O)OC(n3ncc(=O)[nH]c3=O)C2O1` (stereo unspecified), inactive: 110%.
Turning to `Cc1csc2nc(COc3ccc(NC(=O)COc4ccccc4F)cc3)cc(=O)n12`, the survival is inactive: 86%.
On to `COc1ccccc1Cn1c(CNS(=O)(=O)c2ccc3c(c2)CCCC3)nc2cccnc21`, for which the survival was inactive: 70%.
`COc1ccccc1OCCSc1ncnc2nc[nH]c12`: the survival was inactive: 105%.
For `COc1ccccc1N1CCN(C(=O)CSc2nc3ccccc3nc2Cc2ccc(F)cc2)CC1` the value was inactive: 80%; for `O=C(CSc1nc(-c2ccccc2)[nH]c1-c1ccccc1)Nc1ccc2c(c1)OCO2`, inactive: 100%; for `Cc1cccc(Nc2nc(-c3ccccc3)c3cc(C)ccc3n2)c1`, active: 11%.
Turning to `Cc1nc2sccn2c(=O)c1S(=O)(=O)Nc1ccc(N2CCN(S(C)(=O)=O)CC2)cc1`, the survival is inactive: 129%.
For `CCC(=O)N1c2ccccc2CC1C(=O)NCCN1CCN(c2cccc(C)c2C)CC1` (stereo unspecified) the value was inactive: 73%; for `O=C(Nc1ccc(N2CCCCC2)cc1)c1cccnc1`, inactive: 107%.
For the molecule `Cc1ccc(-c2nc3ccccc3o2)cc1NC(=O)c1cccc2c(Cl)cccc12`, the survival is inactive: 62%.
For `Cc1ccc(/C=[N+](\[O-])c2ccc(N(C)C)cc2)c2nsnc12` the value was inactive: 89%.
As for `Cc1ccc(NC(=O)CSc2nnc3[nH]c(=O)cc(C)n23)cc1Cl`, the survival was inactive: 84%.
For `Cc1sc2c(c1C)c(=O)n(-c1ccccc1)c(=O)n2CC(=O)c1ccc(Cl)cc1` the value was inactive: 88%; for `COc1cccc(CNC(=O)CCc2nnc3n(CC(C)C)c(=O)c4ccccc4n23)c1`, inactive: 88%; for `CC(C)CC(=O)N1CC(=O)Nc2ccc(F)cc2C1c1ccccc1` (stereo unspecified), inactive: 135%.
For the molecule `CCC(Sc1nc2c(sc3ccccc32)c(=O)n1CCCC(=O)NC1CCCC1)C(=O)Nc1cccc(OC)c1` (stereo unspecified), the survival is inactive: 141%.
The result for `Cc1nc2cc(-c3ccc(Br)cc3)[nH]n2c(=O)c1Cl` reads inactive: 99%; that for `CC(C)OCCCn1c(SCC(=O)Nc2ccc(F)cc2)nc2c(sc3ccccc32)c1=O`, inactive: 120%.
The result for `Cc1ccccc1NCc1cccn1-c1nnc(N2CCOCC2)s1` reads inactive: 121%; that for `O=[N+]([O-])c1cc(-c2nc(-c3ccccc3)no2)ccc1N1CCCC1`, inactive: 82%; that for `O=C(Nc1ccc(F)cc1)C1CCN(c2nc3ccccc3n3cccc23)CC1`, inactive: 86%.
For the molecule `COc1ccc(NC(=O)c2cc3c(=O)n(C)c4ccccc4c3s2)cc1Cl`, the survival is inactive: 73%.
Turning to `CCOC(=O)C1CCCN(C(=O)c2c(C)nn(-c3ccc(F)cc3)c2-n2cccc2)C1` (stereo unspecified), the survival is inactive: 132%.
For `Cc1ccc(OCCSc2nc3ccc(NC(=O)c4ccc5c(c4)OCO5)cc3s2)cc1` the value was inactive: 90%.
For `CSc1ccc(CCNC(=O)CCn2c(=O)c3cccn3c3cccnc32)cc1` the value was inactive: 88%; for `CCOc1ccc(-c2cc3c(=O)n(CC(=O)NCc4ccc(OC)cc4)ccn3n2)cc1`, inactive: 72%; for `CCCc1ccc(OC(=O)CSc2nnc(-c3cccs3)o2)cc1`, inactive: 85%.
Consider `CCS(=O)(=O)N1CCc2cc(C(=O)Nc3cccc(C)c3C)ccc21`, for which the survival is inactive: 86%.
For `CC(=O)c1cccc(NCc2ccccc2-c2nnc(-c3ccccc3)o2)c1` the value was inactive: 91%.
For `Cc1cccc(NC(=O)CSc2nnc(N)s2)c1` the value was inactive: 144%; for `CCOc1ccc(S(=O)(=O)N2CCC(N3CCN(Cc4ccc(F)cc4)C(=O)C3=O)CC2)cc1`, inactive: 71%.
For `O=C(NC1(C(F)(F)F)NC(=O)N(CCc2ccccc2)C1=O)c1ccccc1Cl` (stereo unspecified) the value was inactive: 73%.
Turning to `C/C(=N/O)c1[nH]c(C)c(/C(C)=N\O)c1C`, the survival is inactive: 105%.
As to `C=CCNCc1cc2cc(OCC)ccc2[nH]c1=O`, the survival is inactive: 104%.
The result for `CCC(C)NS(=O)(=O)c1ccc(-n2cnnn2)cc1` (stereo unspecified) reads inactive: 100%.
In the case of `O=C(CCn1cccn1)NCc1ccc(Cl)cc1`, the survival was inactive: 45%.
The result for `CCOC(=O)C(CC)Sc1ncnc2sc3c(c12)CCCC3` (stereo unspecified) reads active: -3%; that for `Cc1nc(-n2nc(C)c(Cc3ccccc3Cl)c2C)sc1C(=O)N1CCC(C)CC1`, inactive: 79%.
For `Cc1cccc(-n2ncc(C(=O)N3CCc4ccccc4C3)c2C2CCN(C(=O)OC(C)(C)C)CC2)c1` the value was inactive: 135%; for `COc1ccc(C(CN)c2c[nH]c3ccccc23)cc1` (stereo unspecified), inactive: 114%; for `Cc1oc2ccc(O)c(CN3CCCCCC3)c2c1C(=O)Nc1cccc(Cl)c1C`, inactive: 94%.
For `CCSc1ncc(Cl)c(C(=O)N(Cc2ccccc2Cl)C2CCS(=O)(=O)C2)n1` (stereo unspecified) the value was inactive: 94%.
For the molecule `O=C(C1CCN(S(=O)(=O)c2cccs2)CC1)N1CCN(c2cccc(Cl)c2)CC1`, the survival is inactive: 92%.
The result for `CCN(CC)CCCNC(=O)c1ccc2c(c1)N(Cc1c(F)cccc1Cl)C(=O)c1ccccc1S2` reads inactive: 139%; that for `Cc1nn2c(=O)cc(COC(=O)c3cccc(NC(=O)COc4ccc(C)c(C)c4)c3)nc2s1`, inactive: 97%; that for `Cc1c(-c2nsc(NC(=O)c3cccs3)n2)nnn1-c1ccc(Cl)cc1`, inactive: 72%.
In the case of `N#Cc1c[nH]n2c(NC3CCCCC3)c(-c3ccccc3F)nc12`, the survival was inactive: 80%.
For `COCCSc1nnc(NC(=O)C2CCCO2)s1` (stereo unspecified) the value was inactive: 116%.
In the case of `COC(=O)c1nnn(CC(=O)Nc2cc(F)ccc2F)c1C(=O)OC`, the survival was inactive: 130%.
For `CSc1ncc2c(n1)-c1ccccc1N(Cc1ccc(F)cc1)S2(=O)=O` the value was inactive: 131%; for `O=C(NCCc1ccc(Cl)cc1)C(=O)NCC(c1ccco1)S(=O)(=O)c1cccs1` (stereo unspecified), active: -3%; for `COc1ccc(OC)c(CNS(=O)(=O)c2ccc3[nH]c4c(c3c2)CCCCC4)c1`, inactive: 71%.
The result for `CCC(=O)N1CCc2cc(S(=O)(=O)NC(CC(C)C)C(=O)NCCc3cccc(C)c3)ccc21` (stereo unspecified) reads inactive: 82%; that for `CCOc1nc(NC)nc(N(C#N)CN2C(=O)c3ccccc3C2=O)n1`, inactive: 107%; that for `S=c1sc2c(s1)SC1C(CC3C4C=CC(C4)C31)S2` (stereo unspecified), inactive: 100%.
For `COc1cccc(NC(=O)CSCc2cc(=O)c3ccc(C)c(C)c3[nH]2)c1` the value was inactive: 64%; for `O=c1ccc2cc(S(=O)(=O)NCc3ccc(Br)cc3)ccc2[nH]1`, inactive: 99%; for `Cc1ccc(NC(=O)CSc2nccn2Cc2ccco2)cc1Cl`, inactive: 82%.
Turning to `O=C(NCC1CCCCC1)C1CCCN(c2ncccn2)C1` (stereo unspecified), the survival was inactive: 108%.
The result for `O=S(=O)(NC1CCc2ccccc21)c1ccc(S(=O)(=O)N2CCCC2)cc1` (stereo unspecified) reads inactive: 116%.
Regarding `COc1ccc(N(CCC#N)S(=O)(=O)c2cccc3nsnc23)cc1`, the survival was inactive: 111%.
The result for `Cc1cc(NC(=O)COCc2cc(-c3ccc(F)cc3)on2)ccc1Br` reads inactive: 82%; that for `COc1ccc(-c2onc(C)c2C)cc1S(=O)(=O)NCC(C)c1ccccc1` (stereo unspecified), inactive: 55%.
For `CCNc1ccc(-c2nc(-c3ccccn3)no2)cc1[N+](=O)[O-]` the value was inactive: 93%.
For `O=C(CCCCn1c(=O)c2ccccc2n(Cc2ccccc2Cl)c1=O)NCc1ccc2c(c1)OCO2`, the survival was inactive: 91%.
For `CCCn1c2ccccc2c2cnn(CC(=O)N3CCN(c4ccccc4F)CC3)c(=O)c21` the value was active: -6%; for `CCOc1ccc(CCNS(=O)(=O)c2c(C)nc3scc(C)n3c2=O)cc1OCC`, inactive: 76%.
On to `Cc1ccc(C)c(NC(=O)N2CCC(CN3CCOCC3)CC2)c1`, for which the survival is inactive: 135%.
With `COc1cccc(N2CCN(C(=O)CCCn3c(=O)[nH]c4ccc(Br)cc4c3=O)CC2)c1`, the survival is inactive: 53%.
As for `Cc1ccc(Nc2c(-c3ccc(Cl)cc3)nc3sccn23)c(C)c1`, the survival was inactive: 63%.
With `CCOc1ccc(CNC(=O)c2ccc3nc(CC)c(CC)nc3c2)cc1`, the survival was inactive: 128%.
For `CC(C)Oc1cccc(C(=O)Nc2ccc3oc(-c4cccc(Cl)c4)nc3c2)c1` the value was inactive: 56%; for `Cc1cc(C)n(-c2nc3ccccc3nc2Nc2ccc(Cl)cc2Cl)n1`, inactive: 86%; for `CCn1c(=O)c2cc(C(=O)NCCCOC)sc2c2ccccc21`, inactive: 120%.
For `CC(=O)N1CCCc2cc(S(=O)(=O)NCc3cccc(C)c3)ccc21` the value was inactive: 70%; for `COc1ccc(CNC(=O)CCC2N=C3c4ccccc4N=C(SCc4cccc(F)c4)N3C2=O)cc1` (stereo unspecified), inactive: 121%.
For `CCCN(CCC)C(=O)Cn1nnc2sc(-c3ccccc3)cc2c1=O` the value was inactive: 87%; for `CCc1ccc(N2CC34C=CC(O3)C(C(=O)O)C4C2=O)cc1` (stereo unspecified), inactive: 103%.
Regarding `CCC(c1nnnn1CCOC)N1CCN(c2cccc(C(F)(F)F)c2)CC1` (stereo unspecified), the survival is inactive: 102%.
For `O=c1c2cnn(-c3ccc(F)cc3)c2ncn1Cc1cccc(Cl)c1` the value was inactive: 82%.
For `Cc1nn2c(=O)cc(COC(=O)c3cccc(NC(=O)COc4ccccc4Cl)c3)nc2s1` the value was inactive: 94%; for `Cc1ccc(C(=O)c2cn(Cc3cccc(C)c3)c3nc(C)ccc3c2=O)cc1`, inactive: 54%.
